Assay results published in publication PMC10165274 (The Journal of Biological Chemistry, 2023).

B1: PCNA-C148S (natural protein)
chain: not shown
notes: Proliferating cell nuclear antigen (PCNA), human, disease-associated natural allele C148S; made by site-directed mutagenesis of untagged PCNA-WT in pET3c; Untagged; Natural patient allele (homozygous in three PARD patients); also called C148S-PCNA; p.Cys148Ser; source: E. coli BLR-DE3 (pET3c), purified (S and Q HiTrap, Sephacryl-200 gel filtration)
B2: PCNA-S228I (natural protein)
chain: not shown
notes: Proliferating cell nuclear antigen (PCNA), human, disease-associated natural allele S228I; also called p.Ser228Ile; PARD variant; source: E. coli BLR-DE3 (pET3c), purified (S and Q HiTrap, Sephacryl-200 gel filtration)

Experiments:
[1] = target: the molecule itself; assay: native gel or EMSA; PCNA variants incubated 24 h at 4 °C, 4 to 20% native PAGE, Coomassie
[2] = target: T1, His-tagged full-length FEN1 (Flap endonuclease 1) (human, UniProt P39748); assay: pull-down; His-tagged full-length FEN1 from E. coli lysate coupled to cobalt resin and washed; incubated 1 h with 5 μM PCNA at 4 °C; washed, eluted with imidazole; SDS-PAGE, Coomassie, densitometry; details: both partners purified
T1 construct: Flap endonuclease 1 (FEN1), human, full length; also called hFEN1-6xHis; source: E. coli Rosetta (pET28b/hFEN1-6xHis), lysate coupled to cobalt resin and washed
T1 sequence (P39748 whole entry): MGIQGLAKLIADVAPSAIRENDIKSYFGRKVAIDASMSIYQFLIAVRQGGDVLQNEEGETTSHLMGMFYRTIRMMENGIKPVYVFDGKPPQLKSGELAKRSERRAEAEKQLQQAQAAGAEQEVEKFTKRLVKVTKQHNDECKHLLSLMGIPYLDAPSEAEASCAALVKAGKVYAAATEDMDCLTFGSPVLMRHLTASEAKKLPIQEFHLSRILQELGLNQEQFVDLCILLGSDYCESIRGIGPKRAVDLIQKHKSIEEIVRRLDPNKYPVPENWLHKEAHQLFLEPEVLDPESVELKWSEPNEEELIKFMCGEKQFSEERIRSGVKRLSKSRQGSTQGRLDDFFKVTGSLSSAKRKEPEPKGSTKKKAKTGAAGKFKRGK

Binder | stoichiometry N [1] | binding result [2]
B1 | 3 | binds
B2 | 3 | –
